Reference: the supplement of paper PMC3334620
The full ranking holds about 33,000 sequences; the median of “E-score (-0.5 to 0.5)” is about -0.012, and the highest 2% start at about 0.29. The list shows a part of the results.

Each sequence was assayed against T1, Ybr033w (UniProt P38073) (assay: PBM E-score (8-mer binding enrichment) (E-score (-0.5 to 0.5)); higher = stronger / more preferred TF binding; most listed sequences are background and not binding sites). Settings: protein concentration: 200 nM; construct: GST-full length.
T1 sequence: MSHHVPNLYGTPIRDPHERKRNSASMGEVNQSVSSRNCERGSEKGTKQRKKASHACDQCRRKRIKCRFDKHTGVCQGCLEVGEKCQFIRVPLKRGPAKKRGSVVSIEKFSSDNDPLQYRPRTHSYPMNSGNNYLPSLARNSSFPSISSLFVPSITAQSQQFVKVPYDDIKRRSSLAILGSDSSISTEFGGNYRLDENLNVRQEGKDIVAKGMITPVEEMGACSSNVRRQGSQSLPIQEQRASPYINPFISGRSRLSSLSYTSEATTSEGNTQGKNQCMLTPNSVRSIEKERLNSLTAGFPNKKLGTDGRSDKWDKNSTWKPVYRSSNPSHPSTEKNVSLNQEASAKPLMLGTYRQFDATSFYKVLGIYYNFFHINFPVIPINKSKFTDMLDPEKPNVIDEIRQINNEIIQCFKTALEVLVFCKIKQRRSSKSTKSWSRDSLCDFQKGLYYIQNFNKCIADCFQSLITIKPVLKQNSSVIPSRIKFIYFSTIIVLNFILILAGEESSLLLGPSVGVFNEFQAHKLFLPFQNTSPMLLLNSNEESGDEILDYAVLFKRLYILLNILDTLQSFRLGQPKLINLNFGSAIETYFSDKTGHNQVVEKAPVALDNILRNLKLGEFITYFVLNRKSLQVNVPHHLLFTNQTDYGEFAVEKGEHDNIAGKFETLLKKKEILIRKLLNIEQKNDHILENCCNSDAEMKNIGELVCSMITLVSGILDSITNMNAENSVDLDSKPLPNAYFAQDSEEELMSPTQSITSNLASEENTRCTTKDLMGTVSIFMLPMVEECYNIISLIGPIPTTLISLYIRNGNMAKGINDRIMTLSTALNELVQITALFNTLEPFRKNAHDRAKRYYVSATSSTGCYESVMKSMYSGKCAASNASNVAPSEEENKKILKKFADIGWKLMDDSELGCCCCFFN
In short: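 Universal all-10-mer Agilent arrays, double-stranded by primer extension on fresh or once-stripped slides, were probed with about 100-200 nM GST-tagged yeast transcription factors made by PURExpress. Fluorescent anti-GST detected bound protein, and masliner normalised the scans. E-scores from the Universal PBM Analysis Suite were given to each ungapped eight-base word pooled with its reverse complement.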

Sequence	PBM E-score
ATGACCCG	-0.24
CCGCAGAA	0.0489
CGTTTTCC	0.0707
AATACTCG	0.22
CTACAAGA	0.0357
CGTCTGTC	-0.171
CGCGCACG	-0.124
GACATGAA	0.0129
CGCTTTCA	0.0618
CTCTAACC	-0.125
CAGCTCCG	0.111
CTTCTAAC	-0.108
TAAGCCTA	0.103
AACTATAA	0.159
GGACTTCA	-0.164
CGTAGCAG	-0.0627
ACTTGGCA	-0.115
GTTCTCAA	0.082
AGCCTATG	-0.143
GATGGACC	-0.219
CGACGCAC	-0.00309
ACTTCGCG	-0.0504
ACTACAAG	0.0881
ACAGTCAC	-0.205
GGCATACA	0.0292

Sequence	PBM E-score
CCCAGAGC	-0.237
TAAGTTGA	0.13
CAGGCGTA	0.0702
ACTTCCCT	-0.0306
GAGTGCCC	-0.289
GGTTCACA	0.0343
ATCCGCGA	0.00363
AAGGTATA	0.111
TAAGCGCA	-0.0525
ACCAATGG	0.0589
CCCCAGAA	-0.138
CACCCACC	-0.0583
CGAACTTA	0.117
ATCGTCTA	-0.0993
CGACGTGC	-0.0395
CCTCGAAA	0.152
AAGGAGTA	-0.0654
AATTGTCG	-0.0516
TATGGCCA	0.0594
CTTAACTC	0.0941
AGTCGACA	0.136
GGCGATGA	-0.265
CGGCCAGC	-0.161
AGCCCGAG	-0.157
AGAGCTCT	-0.34

Sequence	PBM E-score
CCAAGCCG	-0.0703
ACCAGCAC	-0.0392
CGTGTGGC	-0.237
ACTACCAG	-0.0736
AGTCATGG	-0.0905
CTCACACC	-0.112
AGAGAATG	-0.0312
AATAAAGT	0.265
GCTATGCC	-0.27
CCCTGCTA	-0.279
TCTATCAA	0.19
ATCGCCAA	-0.136
GGGTCGCA	-0.13
ACCATGCG	-0.0411
ATGTCCTC	0.0728
CATTGGTA	0.165
GCTCTTGA	0.0083
CGCCTATC	-0.0112
ACGACTAG	0.133
CGCCCGCC	-0.161
CACGACGC	-0.187
CATGGCGC	-0.0707
ACGGGGCG	-0.154
CGCATCCG	-0.0664
ATCCATTA	0.0686

Sequence	PBM E-score
AGATTTGC	0.0651
ATACATCG	0.171
AACGCATG	-0.00241
AACAAGTT	0.188
AGTGCAGA	0.00215
AAAACCGC	0.147
AGTACAGC	0.0289
AGGTCGTA	0.143
ACTCCTCA	-0.135
ATACAATC	0.0522
AAACTCCA	0.239
CTGCGCAA	0.0462
CGATCCGA	-0.0807
CACCCTCC	-0.172
CAAAACAC	0.045
TAACTACA	0.25
ACGTAGAG	-0.157
CTGTATGA	-0.0728
AACGAGCT	-0.0935
AAACCTTC	-0.0214
CCTCAGCG	-0.218
GATTGTTA	0.0997
CCAGTAGC	0.142
CCCGACTC	-0.186
ATGAACTG	0.236

Sequence	PBM E-score
AGTGGAAG	-0.166
ACTCCCAC	-0.112
GATGGCCA	-0.0719
TGATACAA	0.177
GTGCGTTA	0.116
ACCATTCT	0.0411
GACAGGAA	0.179
CACCCTGA	-0.219
ATCAAGAA	0.202
AGTATCCA	0.137
ACCCCTAT	-0.213
AAGATGAA	0.0867
CGACCTGC	-0.188
GTCAACGA	-0.147
CGATGTGC	-0.168
CAGTGTGA	0.148
TGATTACA	0.252
AGCTACTG	0.139
TAACGCCA	-0.21
ATGCCTAG	0.0139
CAACCTCC	-0.14
TAGAGCGA	0.0262
ACTAAAAC	0.124
TACGAAAA	0.225
AGCTGTCC	-0.0801

Sequence	PBM E-score
GGGTGTCA	-0.0557
AGAGTTTG	0.042
TACGCCTA	-0.0143
AAACCTGC	0.00588
CGTCACCA	-0.0147
AATAATGC	0.261
CGGCAACA	0.0409
CCCCGACC	-0.253
GTTCGCCA	0.00064
AAAGGACT	-0.146
GCCCGCAA	-0.176
CATCAAAA	0.108
ACGTTTCG	0.0003
ACAGATAT	0.145
AAACTAAG	0.21
ATCATCAT	0.224
GAATAGGA	0.127
CGGAGCAA	0.105
CTCTTACA	0.0927
CGGATCTA	0.0379
ATGTAAAC	0.121
ACTCCCGC	-0.132
ACACGCCA	-0.104
AAAGGGCC	-0.275
CTGGGAAG	-0.125

Sequence	PBM E-score
ATTGGCGC	-0.00082
CTGAGAAC	0.0621
TCATTTCA	0.0938
CAAATGTC	-0.132
GGACAAAA	0.237
CGGCATTC	0.0953
GGGGTATA	-0.249
AGCCCACA	-0.0587
ACATGGAC	0.0947
ATGCACCC	-0.0724
CACTCGAC	-0.162
TAATCTCA	0.103
GCTTGCAA	0.078
ACGGGCTA	-0.252
CTTCTGAA	-0.00241
CCGCGACG	-0.07
ATAGGTAG	0.0525
AAGTTAAA	0.154
ACATGGCG	-0.111
CGGGACGA	-0.0187
ACTTAAGC	0.0594
AAAAAGAG	0.0974
